According to US20090081197A1 (Palatin Technologies, Inc., priority 2007, published 2009):
At least one structure is not confirmed: it was looked up by name or label, or the drawing left a doubt. Some compounds share one wording; it may come from a single statement.

Legend:
[1] = Penile erection induction in male rats; assay type: in vivo
Method: Penile erection induction. The ability of compounds to induce penile erection (PE) in male rats was evaluated with selected compounds. Male Sprague-Dawley rats weighing 200-250 g were kept on a 12 hour on/off light cycle with food and water ad libitum. All behavioral studies were performed between 10 A.M. and 5 P.M. Groups of 4-8 rats were treated with compounds at a variety of doses via intravenous (IV) or intracerebroventricular (ICV) routes. Immediately after treatment, rats were placed into individual polystyrene cages (27 cm long, 16 cm wide, and 25 cm high) for behavioral observation. […] Controls utilized carrier without the test compound. Mean PEs in control groups were 0.17 to 0.5 PEs/rat by IV administration in various experiments and between 1-2 PEs/rat by ICV administration in various experiments, and thus only PEs with statistically relevant increases over the mean PEs in control groups are reported as inducing PEs. A PE response in IV animals greater than the mean PEs in control groups but less than 1.0 PEs/rat, particularly with less than all animals responding, was treated as equivocal, and not necessarily distinguishable from vehicle control. In selected instances, compounds with equivocal results in the IV model were tested for penile response in an ICV model, and compounds without a statistically relevant increase over the mean PEs in ICV control groups were determined to not induce PEs.

MC4-R [2] = target: T1, MC4-R (Homo sapiens, UniProt P32245); experiment: cAMP agonist stimulation, high receptor density system (10 ng/mL doxycycline); settings: NDP-α-MSH maximal cAMP = 1.0
MC4-R [3] = target: T1, MC4-R; experiment: cAMP functional activity assay in HEK-293 cells, normal system; assay type: cell-based; parameters: expressed in transfected cells; host or cells: HEK-293; settings: for intrinsic activity at MC4-R in a normal system: normal receptor density system, NDP-α-MSH = 1.0; for functional status at MC4-R in cAMP assay: normal system, 1 μM concentration where stated
Method: General method for EC50 determination in functional activity assay. […] Data analysis and EC50 values were determined using nonlinear regression analysis with Prism Graph-Pad software.
Functional status. The agonist/antagonist status with respect to MC1-R, MC-3R, MC4-R and MC5-R of certain compounds of the invention was determined. Antagonistic activity was determined by measuring the inhibition of α-MSH-induced or NDP-α-MSH-induced cAMP levels following exposure to graded doses of compounds as in the preceding descriptions.
Assay for agonist. Evaluation of the molecules to elicit a functional response in HEK-293 cells expressing MC4-R was accomplished by measuring the accumulation of intracellular cAMP following treatment. Confluent HEK-293 cells expressing MC4-R receptors were detached by enzyme free cell suspension buffer. […] The cells were plated in a 96 well plates at a density of 0.5×10^5 cells per well and pre-incubated for 30 minutes. Test compounds (dissolved in dimethylsulfoxide (DMSO) at a concentration range of 0.05-5000 nM) were added in a total assay volume of 200 μL and cells were incubated for 1 hour at 37° C. The concentration of DMSO was always held at 1% in the assay mixture. NDP-α-MSH was used as the reference agonist. […] Data analysis and EC50 values were determined by using nonlinear regression analysis with Prism Graph-Pad software. […] Compounds with a response ratio of less than 0.1 (10%) were evaluated for antagonistic activity.

MC4-R [4] = target: T1, MC4-R; experiment: cAMP agonist stimulation, low receptor density system (0.1 ng/mL doxycycline); settings: NDP-α-MSH maximal cAMP = 1.0
[5] = ICV food intake and body weight change; assay type: in vivo; settings: rat, 1 nmol, 24 hours
Method: ICV food intake and body weight change. Change in food intake and body weight was evaluated for selected compounds. Rats with indwelling intracerebroventricular cannulas (ICV rats) were obtained from Hilltop Lab Animals, Inc. (Scottdale, Pa.). Animals were individually housed in conventional plexiglass hanging cages and maintained on a controlled 12 hour on/off light cycle. Water and powdered (LabDiet, 5P00 Prolab RMH 3000) or pelleted (Harlan Teklad 2018 18% Protein Rodent Diet) food was provided ad libitum. For 1 week before treatment, 24-hour food intake and body weight change was recorded to assess a baseline for the group during vehicle treatment. The rats were dosed ICV with vehicle or selected compounds (1-3 nmol). The changes in body weight and food intake for the 24 hour period after dosing were determined. The changes in body weight and food intake for the 48 hour and 72 hour periods after dosing were also measured to determine reversal of changes in body weight and food intake effects back to baseline levels.

T1 sequence (P32245 whole entry): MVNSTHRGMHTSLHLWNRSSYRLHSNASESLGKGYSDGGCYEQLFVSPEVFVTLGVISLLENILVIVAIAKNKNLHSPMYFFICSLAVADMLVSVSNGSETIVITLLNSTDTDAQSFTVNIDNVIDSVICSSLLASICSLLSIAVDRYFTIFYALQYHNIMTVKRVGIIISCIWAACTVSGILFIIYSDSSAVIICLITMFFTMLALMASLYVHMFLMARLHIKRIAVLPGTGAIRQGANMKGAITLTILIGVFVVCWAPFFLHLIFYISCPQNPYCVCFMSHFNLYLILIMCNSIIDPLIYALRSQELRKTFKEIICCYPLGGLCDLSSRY

CCNC(=O)[C@@H]1CCCCNC(=O)C[C@H](NC(C)=O)C(=O)N[C@@H](Cc2c[nH]cn2)C(=O)N[C@H](Cc2ccccc2)C(=O)N[C@@H](CCCNC(=N)N)C(=O)N[C@@H](Cc2c[nH]c3ccccc23)C(=O)N1 [Example 40, Ac-cyclo(-Asp-His-D-Phe-Arg-Trp-Lys)-NH—CH2—CH3]
mean penile erections per rat ([1]; IV, 0.3 mg/kg (peak PE activity)): 2.5
Penile Erection IV ([1]; rat, IV): Yes
animals responding ([1]; rat, IV, 0.3 mg/kg): 83%
Efficacy/Intrinsic Activity (MC4-R [2]): 1.0
intrinsic activity at MC4-R in a normal system (MC4-R [3]): 0.6
functional status at MC4-R in cAMP assay (MC4-R [3]): partial agonist (intrinsic activity between 0.1 (10%) and 0.7 (70%) is classified as a partial agonist)
Efficacy/Intrinsic Activity (MC4-R [4]): 1.0

CCCC[C@H](NC(C)=O)C(=O)N[C@H]1CC(=O)NCCCC[C@@H](C(=O)NCC)NC(=O)[C@H](Cc2cccc3ccccc23)NC(=O)[C@H](CCCNC(=N)N)NC(=O)[C@@H](Cc2ccccc2)NC(=O)[C@H](Cc2c[nH]c3ccccc23)NC1=O [Example 38, Ac-Nle-cyclo(-Asp-Trp-D-Phe-Arg-Nal 1-Lys)-NH—CH2—CH3]
Efficacy/Intrinsic Activity (MC4-R [2]): 1.0
intrinsic activity at MC4-R in a normal system (MC4-R [3]): 0.6
functional status at MC4-R in cAMP assay (MC4-R [3]): agonist (intrinsic activity of 0.7 (70%) or higher is classified as an agonist)
Efficacy/Intrinsic Activity (MC4-R [4]): None

CCCC[C@H](NC(C)=O)C(=O)N[C@H]1CC(=O)NCCCC[C@@H](C(=O)N(C)C)NC(=O)[C@H](Cc2cccc3ccccc23)NC(=O)[C@H](CCCNC(=N)N)NC(=O)[C@@H](Cc2ccccc2)NC(=O)[C@H](Cc2c[nH]cn2)NC1=O [Example 37, Ac-Nle-cyclo(-Asp-His-D-Phe-Arg-Nal 1-Lys)-N(CH3)2]
Efficacy/Intrinsic Activity (MC4-R [2]): 0.88
intrinsic activity at MC4-R in a normal system (MC4-R [3]): 0.7
functional status at MC4-R in cAMP assay (MC4-R [3]): agonist (intrinsic activity of 0.7 (70%) or higher is classified as an agonist)
Efficacy/Intrinsic Activity (MC4-R [4]): 0.69

CC(=O)N[C@H](Cc1ccc2ccccc2c1)C(=O)N1C[C@@H](C)N(C(=O)Cc2ccc3ccccc3c2)C[C@@H]1CCCNC(=N)N [Example 32, N-{(R)-2-[(2S,5R)-2-(3-guanidino-propyl)-5-methyl-4-(2-naphthalen-2-yl-acetyl)-piperazin-1-yl]-1-naphthalen-2-ylmethyl-2-oxo-ethyl}-acetamide]
Penile Erection ICV ([1]; rat, ICV): No
penile erection response ([1]; rat, ICV, 0.1 and 1 nmole): no penile erection response
Penile Erection IV ([1]; rat, IV): No
Efficacy/Intrinsic Activity (MC4-R [2]): None
intrinsic activity at MC4-R in a normal system (MC4-R [3]): 0.3
functional status at MC4-R in cAMP assay (MC4-R [3]): partial agonist (intrinsic activity between 0.1 (10%) and 0.7 (70%) is classified as a partial agonist)
Efficacy/Intrinsic Activity (MC4-R [4]): None

CCCC[C@H](NC(C)=O)C(=O)N[C@H]1CC(=O)NCCCC[C@@H](C(=O)NCC)NC(=O)[C@H](Cc2cccc3ccccc23)NC(=O)[C@H](CCCNC(=N)N)NC(=O)[C@@H](Cc2ccccc2)NC(=O)[C@H](Cc2c[nH]cn2)NC1=O [Example 39, Ac-Nle-cyclo(-Asp-His-D-Phe-Arg-Nal 1-Lys)-NH—CH2—CH3]
Efficacy/Intrinsic Activity (MC4-R [2]): 1.0
intrinsic activity at MC4-R in a normal system (MC4-R [3]): 0.6
functional status at MC4-R in cAMP assay (MC4-R [3]): partial agonist (intrinsic activity between 0.1 (10%) and 0.7 (70%) is classified as a partial agonist)
Efficacy/Intrinsic Activity (MC4-R [4]): 0.77

C[C@H](NC(=O)[C@H](CCCNC(=N)N)NC(=O)[C@@H](Cc1ccc(Cl)cc1)NC(=O)[C@H](COCc1ccccc1)NC(=O)CCCCCCN)c1cccc2ccccc12 [Example 16, 7′-amino-heptanoyl-Ser(Bzl)-D-Phe(4-Cl)-Arg-S-(−)-1-(1-naphthyl)ethylamide]
Penile Erection IV ([1]; rat, IV): No
penile erection response ([1]; rat, IV, 1 μg/kg): no penile erection response
intrinsic activity at MC4-R in a normal system (MC4-R [3]): 0.3
functional status at MC4-R in cAMP assay (MC4-R [3]): partial agonist (intrinsic activity between 0.1 (10%) and 0.7 (70%) is classified as a partial agonist)
decrease in body weight [5]: 1%
decrease in food intake [5]: 13%

C[C@@H]1CN(C(=O)[C@H](N)Cc2ccc3ccccc3c2)[C@@H](CCCNC(=N)N)CN1C(=O)Cc1ccc2ccccc2c1 [Example 33, N-{3-[(2S)-1-[(R)-2-Amino-3-(naphthlene-2-yl)-propionyl]-5(R)-methyl-4-(2-naphthalen-2-yl-acetyl)-piperazin-2-yl]-propyl}-guanidine]
Penile Erection IV ([1]; rat, IV): No
penile erection response ([1]; rat, IV, 0.0003 to 0.03 mg/kg): no penile erection response
Efficacy/Intrinsic Activity (MC4-R [2]): 0.73
intrinsic activity at MC4-R in a normal system (MC4-R [3]): 1
functional status at MC4-R in cAMP assay (MC4-R [3]): agonist (intrinsic activity of 0.7 (70%) or higher is classified as an agonist)
Efficacy/Intrinsic Activity (MC4-R [4]): None

CCCC[C@H](NC(C)=O)C(=O)N[C@H]1CC(=O)NCCCC[C@@H](C(=O)N(C)C)NC(=O)[C@H](Cc2cccc3ccccc23)NC(=O)[C@H](CCCNC(=N)N)NC(=O)[C@@H](Cc2ccccc2)NC(=O)[C@H](Cc2c[nH]c3ccccc23)NC1=O [Example 36, Ac-Nle-cyclo(-Asp-Trp-D-Phe-Arg-Nal 1-Lys)-N(CH3)2]
Efficacy/Intrinsic Activity (MC4-R [2]): 0.98
intrinsic activity at MC4-R in a normal system (MC4-R [3]): 0.8
functional status at MC4-R in cAMP assay (MC4-R [3]): agonist (intrinsic activity of 0.7 (70%) or higher is classified as an agonist)
Efficacy/Intrinsic Activity (MC4-R [4]): None
